# Measured values from ChEMBL document CHEMBL4888484, “Replenishing the malaria drug discovery pipeline: Screening and hit evaluation of the MMV Hit Generation Library 1 (HGL1) against asexual blood stage Plasmodium falciparum ,using a nano luciferase reporter read-out” (2022).
# Among all 150,000 compounds or so, about 540 (0.36%) showed an effect of 50% or more. The list shows a part of the results.
# Tested on: Plasmodium falciparum
# Assay: Primary screen in NF54 nanoGlo assay, in single point, at 2uM, 72h; a lower Z score goes with more inhibition
# Assay type: functional, Erythrocyte
# Conditions: timepoint 72 hour
Compound,% Inhibition [%],Z score
O=C(CCC1CCN(C(=O)Cc2ccccc2F)CC1)Nc1ccc2c(c1)OCCO2,-1,0.14
CCC(NC(=O)Nc1ccc(Br)cc1Br)(C(F)(F)F)C(F)(F)F,1,-0.09
COC(=O)c1ncn(CN2CCN(Cc3ccc(OC)cc3)CC2)n1,-12,1.59
COC(=O)[C@@H]1CCCN1C(=O)c1cc(C)sn1,-6,0.93
COC(=O)N1CCCC[C@H](NC(=O)CCCc2nc(-c3ccccc3C)no2)C1,5,-0.71
Cc1cc(CN(C)C(=O)c2cccc(-c3cc(C)nc(C)c3)c2)on1,-10,1.21
C[C@H]1CCC(=O)N1c1ccc(NC(=O)c2cc(C#N)cn2C)cc1,-6,1.16
COc1ccccc1CC(=O)Nc1ccc2[nH]c(=O)[nH]c2c1,-3,0.47
CO[C@H]1[C@@H]2CC[C@H]1CN(C(=O)NCc1cnc(C)cn1)C2,-8,1.11
CCCN1Cc2cc(OC)ccc2O[C@@H](CC)C1,-4,0.52
CC1CCN(C(=O)c2ccc(NC[C@H](O)CN3CCCCC3)nc2)CC1,6,-0.65
CC[C@@H](CO)N(Cc1cccs1)Cc1ccc(OC)c(O)c1Cl,-7,1.31
N[C@H]1CN(Cc2ccn[nH]2)C[C@@H]1c1ccccc1F,7,-1.07
O=C(Cn1cnc2ccccc2c1=O)NCc1nnc2n1CC[C@H](C(F)(F)F)C2,-8,0.98
NC1(CC(=O)N2CCC[C@H]2c2cccc(Cl)c2)CCC1,3,-0.38
COc1ccc(-c2cc3ccccc3n2C[C@@H](O)Cn2c(C)nc3ccccc32)cc1,-12,1.58
O=C(COc1ccccc1F)N1C2C=CCC1CC2 (stereo unspecified),-7,1.26
Cn1cc(C2C[S+]([O-])CCN2C(=O)c2ccc(C(F)F)nc2)cn1 (stereo unspecified),-17,2.02
CC1(C)C[C@@]2(CCO1)NC(C)(C)C(=O)N2CC1CCCC1,2,-0.21
Cc1ccc2nc(-c3cc(NC(=O)COc4ccc5ccccc5c4)ccc3Cl)oc2c1,-1,0.13
O=c1c2ccccc2nc(N2CCN(c3cccc(C(F)(F)F)c3)CC2)n1-c1ccccc1,-6,0.7

Compound,% Inhibition [%],Z score
COc1cccc2c1NC(=O)C[C@H]2C(=O)N1CCN(c2ncccn2)CC1,-8,1.15
COc1ccc(Cl)c2sc(N(C[C@H]3CCCO3)C(C)=O)nc12,-9,1.45
C[C@H]1CCCc2ncc(C(=O)NCC3(C4(O)CCC4)CC3)n21,0,0.01
CN(CCCc1cc(-c2ccccc2)n[nH]1)C(=O)c1ccc2c(c1)CCC(=O)N2,5,-0.7
Cc1cccc(C(=O)NCc2ccc3c(c2)CCN3C(=O)c2ccccc2)c1,-7,1.33
O=C(CN1CCCCS1(=O)=O)NCCC1CCCCC1,-12,1.46
COc1ccc2oc(C(=O)N3CC[C@H](Oc4ncccn4)C3)cc2c1,-29,4.5
CC(C)(O)[C@@H]1CCCN1C(=O)Cc1ccc2cn[nH]c2c1,5,-0.63
CCN(CC)S(=O)(=O)N[C@@H](C)c1ncnn1C,-5,1.04
O=C(NCc1cc(F)cc(C(F)(F)F)c1)C1CCN(CCO)CC1,-13,1.38
COc1ccc(S(=O)(=O)NCc2noc(C(C)C)n2)cc1C(C)C,2,-0.35
O=C(Nc1ccc(OCc2cccc3cccnc23)cc1)c1ccco1,-2,0.38
C[C@@H](CNC(=O)C1CCC(O)CC1)N1CCCCC1=O (stereo partly specified),-7,0.71
CC(C)c1ccc(OCc2ccc(C(=O)N3CCc4ccccc4C3)o2)cc1,-49,5.74
O=C(NCCN1CCOCC1)[C@H]1CCc2nn(CCOc3ccccc3)c(=O)n2CC1,-5,0.83
COc1ccc(N2CCN(Cc3cccn3-c3nnc(N4CCOCC4)s3)CC2)cc1,-2,0.18
CN(Cc1ccccn1)S(=O)(=O)[C@H]1CCCN(C(=O)c2cccc(Cl)c2)C1,5,-0.57
Cc1cnc(CN2CCCC[C@@H]2Cn2cncn2)cn1,9,-1.34
C=Cc1cccc([C@H]2N[C@](CO)(c3ccccc3)[C@H]3CN(C)C[C@@H]23)c1,-1,0.2
O=C(Cc1cccc2ccccc12)N[C@H]1CC(=O)N(c2ccc(F)cc2)C1,-9,1.71
O=C(NC[C@@]1(O)C=CCCC1)c1ccc2c(c1)OCO2,-2,0.38

Compound,% Inhibition [%],Z score
C=CCCS(=O)(=O)N1CCC(n2ccnn2)CC1,0,0.03
Cc1ccc(CNc2nc(N3CCOCC3)nc3c2cnn3C)cc1,9,-1.68
Cn1cc(C2CCN(C(=O)N[C@H]3CCCOc4cc(F)ccc43)CC2)cn1,-1,0.15
Cc1oc2ccn(Cc3ccc(F)cc3)c(=O)c2c1C(=O)N1CCN(c2ccccn2)CC1,5,-0.75
CCCn1nc(-c2cc(C)sc2C)cc1C(=O)NCc1ccccc1,-12,1.13
CCOc1ccc(C(=O)N2CCN(c3cnn4c(C5CC5)nnc4c3)CC2)cc1,-5,0.95
O=C1COc2ccc(Cl)cc2N1Cc1nc(-c2ccc(S(=O)(=O)N3CCCCC3)cc2)no1,-5,0.75
Nc1nc(N[C@H]2CCCC[C@@H]2c2ccccc2)c2cn[nH]c2n1,-7,0.98
O=C(c1csc(CN(Cc2cccc(C(F)(F)F)c2)Cc2ccccc2F)n1)N1CCN(c2cccc(C(F)(F)F)c2)CC1,-13,1.17
COc1cccc(C(=O)Nc2c(-c3cccs3)n[nH]c2C)c1,-8,1.26
COc1ccccc1S(=O)(=O)N1CCC(NC(=O)c2ccc(C)o2)CC1,-3,0.45
COCCn1cncc1CNc1ncnc2c1Cc1ccccc1OC2,-7,1.26
Cc1noc(C)c1C(=O)O[C@@H](C)C(=O)N1CCc2ccccc2C1,-4,0.59
Cc1noc(C)c1C(=O)N1CCC[C@H](Cc2nc(-c3cnccn3)no2)C1,11,-1.45
C[C@]1(NC(=O)Nc2cccc3[nH]c(=O)ccc23)CCOC1,2,-0.31
CCn1c(-c2ccccc2F)nc2cc(NC(C)=O)cc(C(=O)NCCc3cscn3)c21,-8,1.06
CN(CCNC(=O)c1ccc2cnn(Cc3ccc(Cl)cc3)c2c1)C1CCCCC1,-9,0.92
CC(C)CN(CC(=O)N(Cc1ccco1)C[C@H]1CCCO1)C(=O)Cc1ccc(F)cc1,-7,1.07
CC(C)c1noc(CN(C)C(=O)CCS(C)(=O)=O)n1,4,-0.44
N#Cc1ccccc1Oc1ccc(C(=O)N2CC[C@@H](O)C2)cc1Cl,-11,1.45
COCCN1C(=O)[C@@H]2CC[C@H]1CN(C(=O)c1ccc(OC)c(F)c1F)C2,3,-0.63

Compound,% Inhibition [%],Z score
COC(CNC(=O)c1cccnc1)OC,-5,0.62
C[C@@H](c1nccs1)N1CCN(S(=O)(=O)c2cccc(F)c2F)CC1,5,-0.57
COC[C@@H](O)CNC(=O)Nc1cccc2c1OC(C)(C)CC2,-10,1.15
CC[C@@](C)(C(=O)Nc1c(C)cccc1C)N(C(=O)Cn1nnnc1N)c1ccccc1,5,-0.58
CCOC(=O)NCC(=O)N1CCC(C)CC1,-15,2.76
O=C(Nc1ccc(Cl)c(Cl)c1)C1=NCCN1,2,-0.32
O=C(CCc1nc2ccccc2[nH]1)N1CCC[C@H](O)C1,4,-0.81
O=C(NCc1cccc(Cl)c1O)c1nc(C2CC2)no1,-7,1.34
COC(=O)N1CCC(C(C)NC(=O)C2CC23CCOCC3)CC1 (stereo unspecified),3,-0.46
O=C(c1oc(C2CC2)nc1C(F)F)N1Cc2ccccc2CO1,0,-0.06
COc1ccc([C@@H]2CCCN2C(=O)c2scnc2C)cc1OC,-9,0.83
C=C(C)CNC(=O)Nc1ccc(NC(=O)C(C)C)cc1,-8,1.58
CCn1cc(NC(=O)C2CCN(c3ccccn3)CC2)cn1,-12,1.09
CCCc1cc(NC(=O)COCCOC)n[nH]1,-5,0.64
COc1ccc(-n2nc(C(=O)NC3CCCCC3)cc2-c2cccnc2)cc1,-11,1.47
CC(C)n1ccc(CNC(=O)N2CC[C@H](CC3CC3)C2)n1,-6,0.97
CCn1nc(C)c(CN2C[C@@H]3CC[C@H]2CN(C(=O)c2ccncc2)C3)c1C,-11,0.99
Cc1nc(NC(=O)c2ccc(OC3CCOCC3)nc2)sc1C(=O)N(C)C,-1,0.15
Cc1c(C(=O)NCc2ccccc2)sc2ncnc(N3CCCCCC3)c12,-14,1.27
CC1CN(C(=O)CN2C(=O)NC(C)(c3ccc(C(C)(C)C)cc3)C2=O)CC(C)O1 (stereo unspecified),5,-0.9
